The labels stand for the following.
T1: UNK ZnF1-3 (human, UniProt Q9C0B0 31-174)
T1 sequence: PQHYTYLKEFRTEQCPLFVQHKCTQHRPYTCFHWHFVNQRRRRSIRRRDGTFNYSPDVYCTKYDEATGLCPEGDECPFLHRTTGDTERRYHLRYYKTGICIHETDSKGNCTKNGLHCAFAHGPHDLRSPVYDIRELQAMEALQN

B1: chr19:41288738:41288739:-_ENSMUSG00000025016_ENSMUST00000025989|mus_mus|FALSE|FALSE (ssRNA)
RNA: GGGAGUUCUACAGUCCGACGAUCUGGGGGAGGGAGGGGAAGAUAAUCACUUUAGACAUUCAGUUAAAAUGUAAAUUAUCUAAAUCUCCAAAUGUUUAAUAAAAACAAGCAUCUUCUCCAUUUAACACUUCGCUUGCUAACUGUCAACAGAGGAUUGAGCAUCA
B2: chr1:39494447:39494448:+_ENSG00000168653_ENST00000372967|hu_hu|FALSE|FALSE (ssRNA)
RNA: GGGAGUUCUACAGUCCGACGAUCGCAUCGACCAGCCAUCUUGUAGGGCUGUUCACCACUCUGGAUUGUCAACCAUCGAUCUAUGUUAAGGCCGAACCUUUUCUGGAUGUCCAAGAAAGGCAUGGCCGAUGCUCGUGCCCUUGACAACAGAGGAUUGAGCAUCA
B3: chr4:123032474:123032475:-_ENSMUSG00000028649_ENSMUST00000154824|mus_hu|FALSE|FALSE (ssRNA)
RNA: GGGAGUUCUACAGUCCGACGAUCGUGAGCGGAAGGGGGUCAUUCCCUGGGAUGCUCCCUCUGGUAGGAUGAAUUUCUCUCUAAGUUCAAUGUUAGUUCUACCUCGUGCUCGGCAGGGAUCAUUUUUCACUAAAAAUUCAUCCACAACAGAGGAUUGAGCAUCA
B4: chrX:17825403:17825404:+_ENSMUSG00000037369_ENSMUST00000044484|mus_mus|FALSE|FALSE (ssRNA)
RNA: GGGAGUUCUACAGUCCGACGAUCCCAUGAAUGAGUUUGUUGUUCUACUGGAGGUGGUGCAUUGCCACCACUCCAAUUAUCAGAAGUAUUCUGCUGUGCUGUGUUCAUGGCACCCUGCCUGGAGGUAAGCUCUGCGGGGAUUGGCAACAGAGGAUUGAGCAUCA
B5: chr18:56819859:56819860:+_ENSG00000166562_ENST00000588875|hu_mus|hu_hu_hu_mus_True|8_88 (ssRNA)
RNA: GGGAGUUCUACAGUCCGACGAUCAACCUUGAUUACUCUGUGAACUAUUGGAAUGUCUCUUCCUUCAACCUUAAAAACAACUAUUUCACCAGCUCUGAUGGGGUCCUCCCGGAAAUUCGUGAGGAACAGGAGGUCUCCUCUGUGCAACAGAGGAUUGAGCAUCA
B6: chr4:47484081:47484082:-_ENSMUSG00000039740_ENSMUST00000044148|mus_hu|motif|central (ssRNA)
RNA: GGGAGUUCUACAGUCCGACGAUCCAUUAUACUAUGAAGCCAAAUUAAUCAACUUUGAUAAUGAUACACACUUAAACGGUGAAAACCAAUUAAGGCACAGUAUCAUUCAAAAUUUAUAGACAGAAGAGCAAUAAUCCCGAGAAACAACAGAGGAUUGAGCAUCA
B7: chr2:131005039:131005040:-_ENSMUSG00000068267_ENSMUST00000089510|mus_hu|FALSE|FALSE (ssRNA)
RNA: GGGAGUUCUACAGUCCGACGAUCGUACCAUAGACUGGUCUCGGUGGCGCUGAACACGUCCUGCGAGGCGUAGCCCUCGGCCACCGACGGCGGCUGCUCCUCCCGAGCGCGCCAACCAGUAGUGCUCCCGCCACUGCCCUCCGACAACAGAGGAUUGAGCAUCA
B8: chr17:45747064:45747065:+_ENSG00000108424_ENST00000290158|hu_hu|FALSE|FALSE (ssRNA)
RNA: GGGAGUUCUACAGUCCGACGAUCGCCUACAGUCCAUGCAGCUGUAUCUCGAACAACUACACUGGGGUCUUUCAUUAAUUCUAUUAGGGUGGGCAUAGCCUGUAUAACUAGUGGUUUGAGCUGACUGGGCUCUGGUCCUUCCAACAACAGAGGAUUGAGCAUCA
B9: chr16:94690093:94690094:+_ENSMUSG00000040785_ENSMUST00000117648|mus_hu|mus_mus_mus_hu_True|38_108 (ssRNA)
RNA: GGGAGUUCUACAGUCCGACGAUCGGGGACUCCUGUGGGACACACAGCCUCGAUUCCAGGGGGAAAAAGUCUUAGUCGAUACUAAUUAAAAAGUGUUUUUAUAAUUGGAAAAUCAGAUUACAUCUAUAAAAGAUGAAAAGCAAACAACAGAGGAUUGAGCAUCA
B10: chr3:179287964:179287965:+_ENSG00000136518_ENST00000429709|hu_hu|hu_hu_hu_mus_True|68_78 (ssRNA)
RNA: GGGAGUUCUACAGUCCGACGAUCCUUGAGUGGUGAGAUGGCCUCCAUGUUCUCCCUCGGAACACGCAGAGCAUUAGUGUCUAUGUAGUAGGUGGGCCCGCCCUGCUUGCCUUUGUCACCAUCAAUCUCCAUCAUUGUACUUCCCAACAGAGGAUUGAGCAUCA
B11: chr2:74714571:74714572:+_ENSMUSG00000027099_ENSMUST00000028511|mus_hu|motif|central (ssRNA)
RNA: GGGAGUUCUACAGUCCGACGAUCCACCAAUAUCUAAUGUAACAUUCAAGUAAAACAUAUUUCAAAAGUUAAGACUCCUGAGACGGACACAUAACUCUAUGACAGCCUGCCUUUACCACGAUCUUCAAAAUAGUGCUGUUCAAUCAACAGAGGAUUGAGCAUCA
B12: chr7:141441981:141441982:+_ENSG00000106028_ENST00000265304|hu_mus|hu_hu_hu_mus_False|1_88 (ssRNA)
RNA: GGGAGUUCUACAGUCCGACGAUCCUCAUGUCUUACAAACUGACGAAGUACCUGUAACACAGGUCUUCGAAACAUGGCUUCUGUUUUUCUUACAACCUAAUCUUUAGGCUUUUCCUAAAGGAAAGAAAGAAAAGAGAAGCCCAGCAACAGAGGAUUGAGCAUCA
B13: chr2:27445747:27445748:+_ENSG00000084774_ENST00000264705|hu_hu|motif|central (ssRNA)
RNA: GGGAGUUCUACAGUCCGACGAUCGGAGGCAGGGUCACCAGGCCCAUUACUUAAGAAGAGACCCUCAUACUCUUGGCUGUCGGGUGCAUGGUCCCAGGGUACCACAGUGACCUCAGCCCCACGCUGGCAGAGGCAUCGGAUCUGCAACAGAGGAUUGAGCAUCA
B14: chr17:55758012:55758013:+_ENSG00000153944_ENST00000284073|hu_hu|FALSE|FALSE (ssRNA)
RNA: GGGAGUUCUACAGUCCGACGAUCUGUUUUUAAAAAACAUCUUGGGAAAAGCAGUUUUUCAUAUUUUAAAUAAAAAUCUAACUAGACGGUAACAUUUGAAGCUGUGCACAGACAAGAGGUUAAUAGGCUGGUACAACACUAAUACAACAGAGGAUUGAGCAUCA
B15: chr1:182352875:182352876:-_ENSG00000135821_ENST00000339526|hu_hu|FALSE|FALSE (ssRNA)
RNA: GGGAGUUCUACAGUCCGACGAUCCAUAAUCCACAAAACCAUACAUAUAGUUUUUUGUCUUUACAUUUAAAUAUAAAAAUACUAUUCUGCUUUGUGUGAUAAAUCAAGGACCAAGCAGUAAGAACCUUUUCUUCUUUCAAGGUACAACAGAGGAUUGAGCAUCA
B16: chr17:65740002:65740003:+_ENSG00000130935_ENST00000581375|hu_mus|FALSE|FALSE (ssRNA)
RNA: GGGAGUUCUACAGUCCGACGAUCAACAAAUCUUUCUUCCCUGGACGAACAGGAAGAUUCAUAUUAAAAAAAAUAUAUAUCCAUCAAGUUAGGUGUGGUGGCCACACCUUUACUCCCAGCACUUUGGGAGGUGGAUCUCUGAGUCAACAGAGGAUUGAGCAUCA
B17: chr17:26420301:26420302:+_ENSMUSG00000024188_ENSMUST00000114976|mus_mus|FALSE|FALSE (ssRNA)
RNA: GGGAGUUCUACAGUCCGACGAUCAGUGUGCCUUGAGUCCUGAAAUCCAAGUCUGCCCAGACAAGACUGUCUUUCCAGAAAAGGUUCAAAAACCGACAAAAAACUUUUGCCACAACAUCCUUGUAAAACUCACCCUCCACAAGACAACAGAGGAUUGAGCAUCA
B18: chr4:140556289:140556290:+_ENSMUSG00000036622_ENSMUST00000037055|mus_mus|mus_mus_mus_hu_False|28_88 (ssRNA)
RNA: GGGAGUUCUACAGUCCGACGAUCGAUGGAGCUCACCAGGCCCCCUUUGGCUGUGCAGAACCCUGUGCGGGUCACCACUGCCAGGACGUGCGGUCCCACAUAGGCCCGGGCCUGCAGGAUGAGGGUCCCGCAGAAGAGUGUGUGCAACAGAGGAUUGAGCAUCA
B19: chr6:67234166:67234167:+_ENSMUSG00000036371_ENSMUST00000042990|mus_hu|motif|central (ssRNA)
RNA: GGGAGUUCUACAGUCCGACGAUCUGAAGAAUGCAUAAUCUCUGAAAAUUAUGAAAACAUCCCUGCUACCAAUACAUUUCGGAAUACAAAACUGACUACCAUAUUUGUUACUUCUGUGUAGCGGGAGAAGUUCAUUUUUAAAACCAACAGAGGAUUGAGCAUCA
B20: chr17:90989275:90989276:-_ENSMUSG00000024109_ENSMUST00000160844|mus_mus|FALSE|FALSE (ssRNA)
RNA: GGGAGUUCUACAGUCCGACGAUCAGAUGUUGUCUUGAAUUGGAAAAAUAGAUGCAUAGAGGUGUAGGCUUGCAAUGUAGCUAAGGCAACAUAGCUCGAUUUGGUCUUGAAGGUGACAGGAUCUGCGAUGAUGUUCCUGAAUCCCAACAGAGGAUUGAGCAUCA
B21: chr17:7482246:7482247:+_ENSG00000161960_ENST00000293831|hu_hu|motif|central (ssRNA)
RNA: GGGAGUUCUACAGUCCGACGAUCAGUUUCCAAGUCAUUUUAUUCAGAAUUUUGUGUUUGUUUCCUGAAUCAAUAAAUACGGUACAAAACAAUGUAAAAAUGGCUACCAUUUUCUCUCCCCUGCUUCCCCCCACCUGGGGACAACAACAGAGGAUUGAGCAUCA
B22: chr7:30889366:30889367:+_ENSMUSG00000049421_ENSMUST00000108200|mus_mus|motif|central (ssRNA)
RNA: GGGAGUUCUACAGUCCGACGAUCUGUCUGUGCCCAGGGGAAAUAAUUGUUUUCUAGGUUUCCUGAAUUUGUUUUUUAGUCGGUCUCUCUACAGAAAGCUGAGACUUAACUCACACGUCUUUCAUCCUGUGUCCUUAUCUGUGUCAACAGAGGAUUGAGCAUCA

Some of the results follow.

In this test the target is T1, UNK ZnF1-3. The experiment in a line: nsRBNS (natural sequence RNA bind-n-seq); RBNS binding buffer (assumed for nsRBNS): 25 mM Tris pH 7.5, 150 mM KCl, 3 mM MgCl2, 0.01% Triton X-100, 500 ug/ml BSA, 20 U/ml SUPERase-In, 4 C; UNK is unkempt and MSI1 is Musashi-1; names of the RNAs are library labels; protein concentration not given here; high values mean tight binding.
For B1, the binding signal was 1.32 enrichment R.

Take B2: the binding signal was determined as 0.713 enrichment R.

The molecule B3 came in with a binding signal of 0.609 enrichment R.

Molecule B4 showed a binding signal of 0.656 enrichment R. In the case of B5, the binding signal turned out to be 0.779 enrichment R. With B6, the binding signal is 0.812 enrichment R. B7 came in with a binding signal of 0.363 enrichment R. Molecule B8 yielded a binding signal of 1.11 enrichment R. Take B9: the binding signal stood at 1.84 enrichment R. Turning to B10, the binding signal is 0.601 enrichment R.

Turning to B11, the binding signal worked out at 1.87 enrichment R. With B12, the binding signal worked out at 0.392 enrichment R. B13: the binding signal is 0.873 enrichment R.

B14 registered a binding signal of 1.91 enrichment R.

B15 showed a binding signal of 0.657 enrichment R. The value for B16 was 0.947 enrichment R. Regarding B17, the binding signal was 1.53 enrichment R.

B18 had a binding signal of 1.22 enrichment R. The value for B19 was 1 enrichment R; that for B20 was 1.01 enrichment R; that for B21 was 2.28 enrichment R.

Molecule B22 came in with a binding signal of 0.571 enrichment R.

The record behind these values is article PMC12136788.
